# Assay results taken from PubChem BioAssay AID2202238 (Ras Initiative Chemistry Research Team, Frederick National …, 2025).
# Fewer than 10 of roughly 2,200 compounds were called active. Some of the results follow. Where no call is shown, the source marks the result inconclusive.
# Target: GTPase KRas (Homo sapiens) (UniProt P01116)
# Assay: Cysteine mutants labelled by reactive fragments (mass read-out) (AID 2202238)
# Parameters: protein at 5 µM with 500 µM competing thiol for 1.5 h
# Details: KRAS G12D cysteine mutants, disulfide tethering, MALDI-TOF labeling; stronger effect = higher value; H27C mutant labeling; fragment at 500 µM
# Chain of UniProt P01116 (P01116 whole entry, looked up, the tested form may be a part): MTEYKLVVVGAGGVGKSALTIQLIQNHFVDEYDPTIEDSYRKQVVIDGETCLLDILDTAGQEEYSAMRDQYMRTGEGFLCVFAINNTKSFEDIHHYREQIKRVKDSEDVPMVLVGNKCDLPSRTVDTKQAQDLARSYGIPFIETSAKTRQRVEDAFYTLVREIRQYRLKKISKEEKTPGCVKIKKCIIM
row,SMILES,percent labeling [%]
1,O=C(CCS)NCCNC(=O)c1cc2ccccc2[nH]1,36.7
2,O=C(NCCS)C1(c2cccnc2)CC(F)(F)C1,39.6
3,O=C(CCCN1C(=O)c2ccccc2C1=O)NCCS,38.9
4,CN(C)C(C(=O)NCCS)c1cscn1 (configuration not stated),32.2
5,O=C(CCS)Nc1cccc(C(=O)Nc2ccc(Br)cn2)c1,12.4
6,CN1CCC(C(=O)NCCS)C(c2ccnn2C)C1 (configuration not stated),42
7,Cc1ccc(NC(=O)CCS)cc1-c1nnnn1C1CC1,50.1
8,O=C(CCS)N1CCc2[nH]cc(I)c(=O)c2C1,37.2
9,NC(=O)Nc1cccc(NC(=O)CCS)c1,44.1
10,CCn1ncc2cc(C(=O)NCCS)c(C)nc21,44.5
11,O=C(NCCS)c1nc(-c2ccccc2)ns1,32.7
12,Cc1cccnc1Oc1ccc(C(=O)NCCS)cc1,17
13,Cc1ccn(-c2cccc(C(=O)NCCS)c2)n1,40.1
14,O=C(CCc1ccc(F)c2c1CCCC2)NCCS,20.4
15,Cc1ccc(C(=O)NCCS)cc1N1CCOCC1,47.4
16,O=C(CCS)Nc1ccc(-n2cnnc2)nc1,28.7
17,CCCc1c(C(=O)NCCS)cnn1-c1ccccc1,39.1
18,O=C(NCCS)c1nc2ccc(Br)cn2n1,50.2
19,O=C(NCCS)c1ccc(-c2n[nH]c(C3CC3)n2)cc1,39.1
20,O=C(CCS)NCCn1cnc2sccc2c1=O,35.8
21,C[C@@H]1CN(c2ccccn2)C[C@H]1C(=O)NCCS,43.2
22,O=C(CCS)NCc1c2c(n[nH]c1=O)CCCC2,37.4
23,O=C(Cn1cnc2scc(-c3cccs3)c2c1=O)NCCS,25.5
24,CC(C)(C)OC(=O)N1CCC(C2CCN(C(=O)CCS)CC2)CC1,42.6

row,SMILES,percent labeling [%]
1,O=C(CCS)NCCN1CCN(c2ncccn2)CC1,37.5
2,O=C(NCCS)c1ccc2c(c1)nnn2CCc1ccccc1,20.3
3,O=C(CCS)NCc1cccc(N2CCCC2=O)c1,32.7
4,O=C(NCCS)c1ncoc1CCC(F)(F)F,37.4
5,O=C(NCCS)C1CCCN(C(=O)N2CCc3sccc3C2)C1 (configuration not stated),26.9
6,CC1(C)Cc2c(cnn2-c2ccccc2)CN(C(=O)CCS)C1,42.4
7,O=C(NCCS)c1ccn(CC(F)(F)F)c(=O)c1,35
8,N#Cc1cnn(-c2cccc(C(=O)NCCS)c2)c1N,39.4
9,O=C(CCNC(=O)c1cccc(Cl)c1)NCCS,28.9
10,O=C(NCCS)c1nc2ccccc2nc1C1CC1,19.9
11,O=C(NCCS)c1c[nH]c(=O)c(C(F)(F)F)c1,40.8
12,O=C(CCS)NCCNC(=O)c1cnccn1,25.3
13,CC(C)c1nc(CCNC(=O)CCS)n(C)n1,24.1
14,O=C(NCCS)c1cc2ccccc2o1,42.1
15,O=C(NCCS)C1CC(O)c2cc(F)ccc2O1 (configuration not stated),39.8
16,CCCN1CCN(c2ccc(CN(C)C(=O)CCS)nn2)CC1,41.8
17,O=C(CCS)Nc1cc(C(F)(F)F)ccc1N1CCCC1,30.1
18,Cc1c(CC(=O)NCCS)c(-c2ccccc2)nc2ccccc12,30.1
19,O=C(CCS)Nc1cccc(Br)c1,27.9
20,CCC(CC)C(C(=O)NCCS)N1CCOCC1 (configuration not stated),31.9
21,CN(Cc1ccn(C(F)F)n1)C(=O)CCS,36.1
22,CN(C)c1ccc(C(=O)NCCS)cc1,41.3
23,CN1CCN(c2cc(CNC(=O)CCS)ccn2)CC1,44.3
24,Cc1nc2n(c(=O)c1CCNC(=O)CCS)CCCC2,32.7

row,SMILES,percent labeling [%]
1,CC(C)c1oc(-c2ccccc2)nc1C(=O)NCCS,22.1
2,O=C(CCS)Nc1cccc(OCCO)c1,47.1
3,O=C(Cc1cnc[nH]1)NCCS,26.5
4,Cc1ccccc1C(C(=O)NCCS)C1CCCC1 (configuration not stated),21.5
5,CC1(C)Oc2ccc(NC(=O)CCS)cc2O1,39
6,O=C(NCCS)c1cc2ccc(Br)cn2c1,13.5
7,O=C(CCS)NC1CC(=O)N(Cc2ccccc2)C1 (configuration not stated),35.1
8,O=C(CCS)NC1CCC(CO)(CO)CC1,24.5
9,O=C(NCCS)c1ccccc1-c1ncc[nH]1,35
10,O=C(CCS)Nc1cccc(-c2nc(C3CC3)no2)c1,33.3
11,COc1cccc(-c2c[nH]cc2C(=O)NCCS)c1,35.8
12,O=C(NCCS)C1CCC(=O)N(CC(F)(F)F)C1 (configuration not stated),35.4
13,COc1cc2nc(N3CCN(C(=O)CCS)CC3)nc(N)c2cc1OC,40.1
14,O=C(CCS)N1CCN(C(=O)c2ccc(F)cc2F)CC1,48.8
15,O=C(CCc1cc(Br)ccc1F)NCCS,31
16,Cn1cc(Br)c(C(=O)NCCS)cc1=O,36
17,Cc1ccc(C(=O)NCCS)c(Cl)n1,40.7
18,O=C(CCS)NCCc1nc(-c2ccccc2)no1,35.5
19,Cc1nnnn1-c1cc(F)cc(C(=O)NCCS)c1,51.1
20,O=C(NCCS)c1ccc(-n2cnc3ccccc32)nc1,22.6
21,Cc1ccc2c(CCNC(=O)CCS)c[nH]c2n1,34.6
22,CC(C)n1cc(C2=CCCN(C(=O)CCS)CC2)nn1,26.5
23,O=C(CCS)NCC12CC(Cc3ccccc3)(CO1)C2,35.8
24,NC(=O)C1(N2CCN(C(=O)CCS)CC2)CCCCC1,38.3

row,SMILES,percent labeling [%]
1,Cc1cc(NC(=O)CCS)nn1Cc1ccccc1Cl,46
2,CN(Cc1nc2ccccc2c(=O)[nH]1)C(=O)CCS,35.6
3,O=C(NCCS)c1ccc(Cl)c(N2CCNC2=O)c1,47.9
4,O=C(CCS)Nc1ccccc1CN1CCc2ccccc21,14.5
5,CCCN(CCC)C(=O)c1ccc(NC(=O)CCS)cc1,41.6
6,O=C(Cc1sc(-c2ccccc2)nc1-c1cccs1)NCCS,15.9
7,O=C(CCCc1ccc2[nH]c(=O)[nH]c2c1)NCCS,48.4
8,O=C(NCCS)C(c1ccncc1)C1CCCCC1 (configuration not stated),34.2
9,O=C(NCCS)c1ccc(-n2ncc3ccccc32)c(Cl)c1,15.8
10,Cn1cc(C(=O)NC2CCN(C(=O)CCS)CC2)cn1,46.4
11,CCN(CC)C(=O)N1CCC(C(=O)NCCS)CC1,35.8
12,CCn1c(=O)[nH]c(=O)c2c(C(=O)NCCS)cc(C3CC3)nc21,26.6
13,CN(C(=O)CCS)C1CS(=O)(=O)C1(C)C (configuration not stated),34.3
14,O=C(CCS)Nc1ccc(S(=O)(=O)CC2CCOC2)cc1 (configuration not stated),42.4
15,NC(=O)NC1CCC(NC(=O)CCS)CC1 (configuration not stated),34.5
16,O=C(CCS)Nc1cccc(-c2n[nH]c3c2CCC3)c1,46.9
17,O=C(NCCS)c1cccc2[nH]c(C(F)F)nc12,27.8
18,O=C(NCCS)C1CCCCC1c1nc2ccccc2[nH]1 (configuration not stated),31.8
19,Cc1c(C(=O)NCCS)cccc1N1CCNC1=O,34.4
20,O=C(CCS)NCC1(O)CC2CCC(C2)C1 (configuration not stated),35.1
21,O=C(NCCS)c1cc2c(OC(F)F)cccc2[nH]1,27.2
22,O=C(CCS)NC1CC(O)(C2(O)CCC2)C1 (configuration not stated),31
23,Cc1oc2[nH]c(=O)n(-c3ccccc3)c(=O)c2c1C(=O)NCCS,14.7
24,O=C(CCc1c(-c2ccccc2)[nH]c2ccc(F)cc12)NCCS,20.6

row,SMILES,percent labeling [%]
1,CNC(=O)c1cccc(NC(=O)CCS)c1C,32.7
2,O=C(Cc1coc2cc(Cl)ccc12)NCCS,35.7
3,Cn1c(C(F)(F)F)nc2cncc(C(=O)NCCS)c21,39.4
4,O=C(CCS)N1CCCN(c2ccc(C(F)(F)F)cn2)CC1,41.5
5,Cc1nc2cc(NC(=O)CCS)ccc2n1C,42
6,CC(C)N1Cc2cccc(NC(=O)CCS)c2C1,47.7
7,O=C(CCS)Nc1ccc(F)cc1OCC(F)F,34.7
8,CCOc1cc(NC2CCN(C(=O)CCS)CC2)ncn1,45.5
9,O=C(CCS)NCCOc1cn[nH]c1C(F)(F)F,37.3
10,Cn1cc(NC(=O)CCS)c(=O)n(C)c1=O,39
11,Cc1c(C)c2c(c(C)c1O)CCC(C)(C(=O)NCCS)O2 (configuration not stated),35.2
12,O=C(NCCS)c1cc2c(Cl)cccn2n1,38.5
13,Cc1ccc(C)c(-n2cnc3cc(C(=O)NCCS)ccc32)c1,27.8
14,Cc1nn(C)c(C)c1CC(C)C(=O)NCCS (configuration not stated),27.7
15,O=C(NCCS)c1cc(-c2ccccc2)nc2cc(Br)ccc12,14
16,CC(C)c1cccc(-c2ccc(C(=O)NCCS)o2)c1,31.4
17,CCOc1ccccc1-c1cccc(C(=O)NCCS)c1,24.9
18,Cc1cc(CCCC(=O)NCCS)c(C)s1,23.2
19,O=C(CCS)NC1CCC(N2CCCC2=O)CC1 (configuration not stated),33.6
20,O=C(NCCS)C1(N2CCOCC2)CCCC1,33.6
21,CC(=NOCC(=O)NCCS)c1ccc2c(c1)OCO2,23.9
22,O=C(NCCS)C1CCCCC1c1nc2ccccc2s1 (configuration not stated),25.3
23,O=C(NCCS)c1ccc(-c2nc3ccccc3s2)o1,29.5
24,O=C(NCCS)c1c(Br)ccc(F)c1OC(F)(F)F,24.5

row,SMILES,percent labeling [%]
1,Cc1cc(C(=O)NCCS)n(-c2ccccc2)n1,33
2,O=C(CC(n1cccn1)C(F)(F)F)NCCS (configuration not stated),29.5
3,O=C(CCS)N1CCC(c2ccc3cccnc3n2)CC1,44.2
4,CC(C)Cn1[nH]c(CC(=O)NCCS)cc1=O,15.2
5,O=C(Cn1cnc2sc(-c3ccccc3)cc2c1=O)NCCS,0
6,Cc1[nH]ncc1C(=O)NCCS,31.1
7,O=C(CCS)NCc1nocc1-c1ccc(Cl)cc1,51.8
8,Cc1nnc2ccc(C(=O)NCCS)cc2c1C,15.7
9,O=C(NCCS)[C@@H]1OCCC[C@@H]1c1ccccc1,31.7
10,CCn1c(=O)[nH]c2cc(C(=O)NCCS)ccc21,38.7
11,O=C(COc1ccc(Br)cc1Cl)NCCS,29.1
12,CC(=O)NCc1ccc(C(=O)NCCS)s1,43.7
13,Cc1ccc(C(=O)NC(CC(=O)NCCS)c2ccccc2)cc1 (configuration not stated),14.3
14,O=C(CCNC(=O)c1c[nH]c2ccccc12)NCCS,35.1
15,O=C(COc1ccc2oc3c(c2c1)CCCC3)NCCS,20.1
16,CN(C(=O)CCS)C1c2cc(Cl)cc(Cl)c2CC1O (configuration not stated),38.7
17,O=C(Cc1ccc(F)c(Cl)c1)NCCS,28.3
18,O=C(CCS)NCC1(COc2ccc(Br)cc2)COC1,30
19,CC(C(=O)NCCS)c1ccc(Br)cc1 (configuration not stated),38.1
20,Cc1cc(OCC(=O)NCCS)cc(C)c1Cl,24.3
21,CN(C)Cc1ccoc1-c1n[nH]c(CNC(=O)CCS)n1,43.8
22,O=C(CCS)NC1CCN(c2ccn[nH]2)C1=O (configuration not stated),36.3
